This is an account of results in ChEMBL document CHEMBL4888484, “Replenishing the malaria drug discovery pipeline: Screening and hit evaluation of the MMV Hit Generation Library 1 (HGL1) against asexual blood stage Plasmodium falciparum ,using a nano luciferase reporter read-out” (2022).

One may read the % Inhibition as the change of the read-out against control, counted positive when it falls.

About 540 (0.36%) of roughly 150,000 compounds showed an effect of 50% or more. The list shows a part of the results.

In the assay the test system is Plasmodium falciparum. In words: Primary screen in NF54 nanoGlo assay, in single point, at 2uM, 72h; a lower Z score goes with more inhibition. The format is functional, Erythrocyte. The note with it: timepoint 72 hour.
With `Cc1n[nH]c(C)c1CNC(=O)c1coc(COc2cccc(C(F)(F)F)c2)n1`, the “% Inhibition” value turned out to be 5% and the Z score is -0.73.

Regarding `CN1C(=O)NCC12CCN(Cc1ccccc1F)CC2`, the “% Inhibition” value is 9% and the Z score is on record as -1.14.

Take `CC1(C)CC(S(=O)(=O)NC2COc3ccc4ccccc4c3C2)CO1` (stereo unspecified): the “% Inhibition” value is -8% and the Z score was determined as 0.81.

Regarding `Cc1c(CN(C)C(=O)CCN2CCCCO2)[nH]c2ccccc12`, the “% Inhibition” value was determined as 4% and the Z score was -0.55.

Consider `Cn1c(CN2CCCC2)nnc1C1CCN(C2Cc3ccccc3C2)CC1`, for which the “% Inhibition” value is on record as -4% and the Z score is recorded as 0.72.

For `O=C(Nc1ccccc1C(=O)O)c1cccc(-n2cccn2)n1`, the “% Inhibition” value is -5% and the Z score was 0.73.

For the compound `O=C(COc1ccc2c(c1)OCO2)N(Cc1ccccc1)[C@H]1CCS(=O)(=O)C1`, the “% Inhibition” value was 8% and the Z score is on record as -1.

On to `CC[C@H]1COCCN1Cc1ccc(CN2CCCC2)s1`, for which the “% Inhibition” value worked out at 2% and the Z score was -0.34.

As to `CCCCN(C)C(=O)c1csc(-c2ccc(N3CCCC3)nc2)n1`, the “% Inhibition” value is -23% and the Z score was found to be 2.71.

As to `O=C(N[C@H]1CCCNC1=O)c1coc(COc2ccc(F)cc2Cl)n1`, the “% Inhibition” value was -28% and the Z score is reported as 2.6.

As for `O=C(NCc1cccc(Cl)c1)c1ccc(Oc2nccnc2N2CCOCC2)cc1`, the “% Inhibition” value was -8% and the Z score stood at 0.98.

On to `O=C(NC1CC1)c1cccc(NC(=O)c2nccnc2-c2nc3ccccc3s2)c1`, for which the “% Inhibition” value is -18% and the Z score came to 1.8.

Consider `COc1cc(CCC(=O)N2CCCCc3cc(Cl)ccc32)on1`, for which the “% Inhibition” value was found to be 6% and the Z score is reported as -0.57.

For `O=C(NCc1ccncc1)c1cncc(Br)c1`, the “% Inhibition” value is reported as -12% and the Z score is given as 1.

Take `COC(=O)c1cc(CNc2ccc(Cl)cn2)c[nH]1`: the “% Inhibition” value came to 6% and the Z score is recorded as -0.74.

For `COCCNC(=O)c1coc(CN(Cc2cc(OC)ccc2OC)[C@@H](C)c2ccccc2)n1`, the “% Inhibition” value was -9% and the Z score stood at 1.86.

In the case of `CC(=O)NC(C(=O)N1CC(c2ccsc2)CC1C)C(C)C` (stereo unspecified), the “% Inhibition” value is -9% and the Z score is recorded as 1.31.

As for `Cn1nccc1CN1CCc2nc(C(C)(C)C)ncc2C1`, the “% Inhibition” value is given as 28% and the Z score is reported as -3.61.

As for `Cn1ncnc1CN1CCC[C@@]1(c1c[nH]c2ccccc12)C(F)(F)F`, the “% Inhibition” value is -2% and the Z score came to 0.35.

Regarding `Cc1nn(CCO)cc1CN1CCN(C)C[C@@H]1c1ccccc1`, the “% Inhibition” value came to 6% and the Z score is listed as -1.1.

As for `COc1cccc(N2CCN(C(=O)c3n[nH]c(N)c3Cl)CC2(C)C)c1`, the “% Inhibition” value was -1% and the Z score is recorded as 0.11.

As for `C[C@@H](c1ccc2c(c1)OCCO2)N(C)C(=O)NCc1n[nH]c2c1CCC2`, the “% Inhibition” value is recorded as -1% and the Z score turned out to be 0.09.

With `CC1(C)[C@@H](O)[C@H]2CCCN(C(=O)Nc3ccc(-c4ccon4)cc3)[C@H]21`, the “% Inhibition” value worked out at 1% and the Z score is listed as -0.2.

`CC(C)c1nsc(NCc2nnc3n2CC[C@H](C(F)(F)F)C3)n1`: the “% Inhibition” value is given as -15% and the Z score was 1.64.

For the compound `O=C(Cc1ccccc1)N1CC[C@H]2[C@H](CCCN2Cc2ccccn2)C1`, the “% Inhibition” value is on record as -10% and the Z score came out at 1.32.

In the case of `CCc1nn(Cc2csc3cncn23)c(=O)c(C#N)c1CC`, the “% Inhibition” value is listed as -4% and the Z score is listed as 0.74.

With `O=C(Cc1ccco1)Nc1ccccc1F`, the “% Inhibition” value was -8% and the Z score is listed as 0.89.

Turning to `O=C(NC1CCCC1)N1CC[C@H](OCc2ccccc2)C1`, the “% Inhibition” value is listed as -9% and the Z score came out at 1.39.

Regarding `O=C1NC2(CCN(C(=O)Cc3ccccc3)CC2)Nc2c(Cl)cccc21`, the “% Inhibition” value was -11% and the Z score amounted to 1.35.

With `CC(CNc1ccccc1)NC(=O)C(C)CS(C)(=O)=O` (stereo unspecified), the “% Inhibition” value is listed as -15% and the Z score was found to be 1.89.

Regarding `CS(=O)(=O)N1CC(C(=O)Nc2cc(C(F)(F)F)n[nH]2)C1`, the “% Inhibition” value is -2% and the Z score came to 0.43.

Consider `COc1cnc(C(=O)N2CC3(CCCC3)[C@@H]2C(C)C)nc1`, for which the “% Inhibition” value amounted to 0% and the Z score was 0.

In the case of `COCCC[C@H]1CCCCN1c1nc2c(s1)c(C)nn2C`, the “% Inhibition” value is on record as -19% and the Z score turned out to be 2.54.

For `COc1ccc(-c2n[nH]c(=O)c(Cc3ccccc3)n2)cc1`, the “% Inhibition” value is given as -3% and the Z score is listed as 0.5.

For the compound `O=C1C[C@H](NC(=O)CCC(=O)c2ccc(Cl)cc2)CN1`, the “% Inhibition” value is listed as 1% and the Z score was -0.17.

Regarding `O=C(c1ccc(Cl)s1)N1CC(n2nccn2)C1`, the “% Inhibition” value was -8% and the Z score was found to be 1.59.

For the compound `COc1ccc(-n2ccnc2-c2cn(C3CCNCC3)nn2)c(C)c1`, the “% Inhibition” value amounted to 4% and the Z score is -0.77.

`Cc1cc(-c2nc(C3CC3)n[nH]2)cc2sc(N)nc12`: the “% Inhibition” value is recorded as -14% and the Z score came to 2.62.

Take `O=C(Cc1cc(C2CC2)no1)N[C@@H]1c2ccccc2CC[C@@H]1O`: the “% Inhibition” value is -11% and the Z score is reported as 1.69.

Regarding `Cc1cnc(NC(=O)c2cccc3ccccc23)s1`, the “% Inhibition” value is -12% and the Z score is 2.18.

With `Cc1ccccc1-c1nnc(/C=C/c2ccccc2)o1`, the “% Inhibition” value was -7% and the Z score is given as 0.92.

With `Cc1cccc(N2CCN3C(=O)C(=O)NC[C@H]3C2)n1`, the “% Inhibition” value is reported as -12% and the Z score came to 1.61.

As for `NC(=O)CN(CCC1CCCCC1)Cc1nnc(-c2cccc(Br)c2)o1`, the “% Inhibition” value is reported as -8% and the Z score was found to be 0.78.
